We go through 1 molecule from patent US11834430B2, “Compounds useful as inhibitors of isoprenylcysteine carboxyl methyltransferase” (AGENCY FOR SCIENCE, TECHNOLOGY AND RESEARCH, priority 2017, dated 2023).

As a reminder, the IC50 is the midpoint of a concentration-inhibition curve.

Structures are written as SMILES. A number of entries come with more than one value. This list holds those alone. There may be further records. The records of an entry seem to repeat one measurement; a mean can stand among them.

The experiment concerns the target human ICMT (Homo sapiens (Human), UniProt O60725). Kind of experiment: ICMT biochemical assay (Methyltransferase-Glo). The note with it: ICMT membrane extract from Sf-9 cells; 30 min preincubation, 90 min reaction. On the procedure: Recombinant human ICMT was prepared by infection of Sf9 cells with a recombinant baculovirus containing the entire open reading frame of the human ICMT cDNA.
Cells producing ICMT were harvested 66 hours post-infection. The cells are homogenized and resuspended in 5 mM NaHPO4 (pH 7.0), and a cocktail of protease inhibitors. The membrane was pelleted, after removal of nuclei and debris, at 100,000×g for 1 hour. Membranes were resuspended in 5 mM NaHPO4 (pH 7.0) with 5 mM EDTA at 10-12 mg/ml. The suspension was stored at −80° C. in multiple aliquots.
An ICMT enzymatic assay was developed using Promega's Methyltransferase-GloTMreagents. In the assay, ICMT catalyzes the methylation of the N-Acetyl-S-farnesyl-L-cysteine by transferring a methyl group from SAM to the farnesylated cysteine and further converts the SAM to SAH. The methyltransferase activity is measured based on the amount of SAH produced from the reaction through the use of coupling enzymes that convert the SAH to ATP. […]
A final concentration of 2.0 μM and 20 μM of SAM and peptide were added and further incubated for 90 minutes at room temperature before adding the MTase Glo and detection reagent. Reaction signals were detected using microplate readers on luminescent mode (Satire Tecan). The IC50 was determined by nonlinear regression, using GraphPad Prism version, 5.03.

Chain of human ICMT (O60725 whole entry): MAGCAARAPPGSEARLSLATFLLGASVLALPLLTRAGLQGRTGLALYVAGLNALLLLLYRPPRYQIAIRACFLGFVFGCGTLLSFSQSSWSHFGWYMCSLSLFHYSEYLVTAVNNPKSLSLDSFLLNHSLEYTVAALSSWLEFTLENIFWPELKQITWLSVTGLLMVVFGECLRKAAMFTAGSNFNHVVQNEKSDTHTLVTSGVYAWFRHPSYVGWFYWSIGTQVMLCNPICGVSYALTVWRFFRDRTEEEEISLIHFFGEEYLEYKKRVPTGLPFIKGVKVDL

Take `Cc1nccn1-c1cccc(OCCOc2ccc(C#N)cc2Cl)c1` [Compound 5, 3-chloro-4-(2-(3-(2-methyl-1H-imidazol-1-yl)phenoxy)ethoxy)benzonitrile]: the IC50 was 3 nM, 0.2 nM, 0.4 nM [one cell].
